PubChem BioAssay AID686978 (National Center for Advancing Translational Sciences (NCATS), 2013)
“And” between values parts separate entries of the source, which are not always exact repeats. Equal entries are not always repeated. Hit rate of the full screen: of about 420,000 compounds, about 64,000 (15%) were called active. Inconclusive means that the source gave no clear call. Such entries were picked first, then a sample of the others. The call rests on the fitted dose curve; in most records, active means well fitted inhibition curve with a large enough effect; inconclusive means small, poorly fitted or top-dose-only effect; inactive means flat fitted curve, though single readings scatter. Potencies beside an inconclusive call are fits to weak or partial responses and may not hold up.
On the % scale 0 is the no-effect control and ±100 the full control effect; potency means the concentration at half of the fitted maximal effect; tags describe the fitted curve by direction and shape.

Experiment: qHTS for Inhibitors of human tyrosyl-DNA phosphodiesterase 1 (TDP1): qHTS in cells in absence of CPT; further: nearly all actives have a fitted effect of over 55% in size
Conditions: DT40 Tdp1-/- hTDP1 cells, no CPT, ATP luminescence, 48 h; activity change, negative = growth inhibition: at 46.2 µM (top of the series) unless noted
In short: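 Compound effects on proliferation are scored in DT40 Tdp1-/-;hTDP1 cells in the absence of CPT. ATP levels (CellTiter-Glo luminescence) are recorded after a ≥48 hr, 37 °C incubation.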
With Cc1c(C(=O)NCCN2CCC(c3ccccc3)CC2)cnn1-c1nccc(-c2cccs2)n1 the Potency was inconclusive: 16.4 µM [inhibitor, single point]. With Cc1cc2c(c(=O)n1Cc1cccnc1)C(c1ccc(F)cc1)C(C#N)=C(N)O2 (configuration not stated) the Potency was inconclusive: 29.1 µM [inhibitor, single point]. For O=C(Nc1cccc2ccccc12)C1CCCC1, the “activity change, negative = growth inhibition” value was inactive: 10.8%. In the case of O=C(NCCc1cnc[nH]1)c1ccc(-c2ccccc2)cc1, the “activity change, negative = growth inhibition” value was inactive: -10.4%. In the case of O=C(COc1ccc(C(=O)c2ccc(F)cc2)cc1)Nc1cccc(S(=O)(=O)N2CCOCC2)c1, the Potency was active: 11.6 µM. For Cc1cc2nc(-c3nnnn3Cc3ccccc3)c(=O)[nH]c2cc1C, the Potency was active: 16.4 µM. For Cc1occc1-c1nnc(SCC(=O)Nc2ccccn2)o1, the Potency was inconclusive: 29.1 µM [inhibitor, single point]. In the case of O=S(=O)(c1ccc(Cl)cc1)N1CCN(c2nc(-c3cccs3)nc3ccccc23)CC1, the Potency was “inactive and inconclusive: 22.4 µM [inhibitor, single point] and inconclusive: 29.1 µM [inhibitor, single point]”. In the case of Cc1ccc(-c2cc(C(=O)NN3CCOCC3)c3cc(Br)ccc3n2)o1, the Potency was inconclusive: 7.31 µM [inhibitor, partial curve]. In the case of C=CCNC(=S)Nc1cc(S(=O)(=O)N2CCOCC2)ccc1-n1cncn1, the Potency was inconclusive: 3.66 µM [inhibitor, single point]. For COc1ccc(CNc2oc(COc3ccccc3)nc2C#N)cc1, the Potency was inconclusive: 32.6 µM [inhibitor, partial curve, poor fit]. With CCOC(=O)c1ccc(NC(=O)c2c(NCc3cccc(OC)c3)sc3c2CCC3)cc1 the Potency was active: 11.6 µM. For Cc1nc2ccccc2nc1-c1csc(-c2ccccc2)n1, the Potency was active: 11.2 µM. In the case of Cc1ccccc1Nc1cc(C(=O)NC2CCC(C)CC2)c2ccccc2n1 (configuration not stated), the Potency was active: 11.6 µM. In the case of CCn1ccnc1CN1CCN(CCC(C)C)C(CCO)C1 (configuration not stated), the “activity change, negative = growth inhibition” value was inactive: -0.515%. In the case of Cc1nc(SCC(=O)N2CCCC2=O)nc(C)c1C, the “activity change, negative = growth inhibition” value was inactive: -3.79%. In the case of NC(=O)c1nc[nH]c1C(=O)Nc1cccc(NC(=O)c2cccc(C(F)(F)F)c2)c1, the Potency was inconclusive: 14.6 µM [inhibitor, partial curve]. With CC1Cc2ccccc2N1C(=O)CSc1nnc(Cc2ccccc2)n1CCc1ccccc1 (configuration not stated) the Potency was active: 23.1 µM. In the case of CCOc1ccc(C(C(=O)NC2CCCC2)N(CCOC)C(=O)CNC(=O)c2ccco2)cc1 (configuration not stated), the “activity change, negative = growth inhibition” value was inactive: 2.16%. In the case of CC(C)(C)NC(=O)NC(=O)CSc1ncn[nH]1, the activity change, negative = growth inhibition was inconclusive: -32.6% [inhibitor]. For Cc1c(Cl)cccc1NC(=S)NN, the Potency was inconclusive: 20.6 µM [inhibitor, single point]. In the case of Cc1cccc(CCN(CC(=O)NCc2ccc(F)cc2)C(=O)c2csnn2)c1, the Potency was inconclusive: 0.58 µM [inhibitor, full curve, poor fit]. In the case of Cc1ccc(S(=O)(=O)NC(CN2CCOCC2)=NCCNS(=O)(=O)c2ccccc2)cc1, the “activity change, negative = growth inhibition” value was inactive: -17.5%. With Fc1ccc(NC(=S)SCc2ccc3c(c2)OCO3)cc1F the Potency was active: 18.4 µM. For COc1ccc(OC)c(C(=O)NC(CC(N)=O)c2ccc(NCCN3CCOCC3)c([N+](=O)[O-])c2)c1 (configuration not stated), the Potency was inconclusive: 0.0065 µM [inhibitor, full curve, poor fit]. For CCOC(=O)c1sc(NC(=O)c2ccccc2OC)nc1C, the Potency was inconclusive: 8.2 µM [inhibitor, partial curve]. For CS(=O)(=O)NCCNc1ccc(C(F)(F)F)cc1[N+](=O)[O-], the “activity change, negative = growth inhibition” value was inactive: -5.82%. In the case of CO/N=C\CC(=O)Nc1ccc(Cl)cc1Cl, the Potency was active: 20.6 µM. For CC(C)c1ccc(C(=O)Nc2ccc(-c3nc4ccccc4s3)c(Cl)c2)cc1, the Potency was active: 7.31 µM. With O=C(Oc1ccc(N(Cc2cccs2)C2=NS(=O)(=O)c3ccccc32)cc1)c1ccccc1Cl the Potency was active: 5.8 µM. With CSc1ccc(/C=N/n2c(Cc3ccc(Br)cc3)n[nH]c2=S)cc1 the Potency was inconclusive: 29.1 µM [inhibitor, single point]. In the case of O=C(O)CCC(=O)N1CCc2cc(S(=O)(=O)NC3CCCC3)ccc21, the Potency was inconclusive: 0.0058 µM [inhibitor, full curve, poor fit]. With CCOC(=O)CNC(=O)CSc1nnc(-c2cccc(OC)c2)n1CC the “activity change, negative = growth inhibition” value was inactive: -6.98%. With Cc1cc(C)n(-c2ccc(C(=O)OCn3nnc4ccccc4c3=O)cc2)n1 the Potency was inconclusive: 35.5 µM [inhibitor, single point]. For C[C@H](CO)N1C[C@H](C)[C@@H](CN(C)C(=O)NC2CCCCC2)Oc2c(cccc2N(C)C)C1=O, the activity change, negative = growth inhibition was inconclusive: -31.9% [inhibitor]. For COC(=O)C(NC(=O)c1ccc(OC)cc1)(Nc1ncc(S(=O)(=O)c2ccc([N+](=O)[O-])cc2)s1)C(F)(F)F (configuration not stated), the Potency was inconclusive: 29.1 µM [inhibitor, single point]. For O=C1NC(=S)N/C1=C\c1ccccc1OCc1ccc(C(=O)O)cc1, the “activity change, negative = growth inhibition” value was inactive: -14.8%. With COc1ccc2oc(-c3ccc(C)c(NC(=O)c4sc5ccccc5c4Cl)c3)nc2c1 the Potency was inconclusive: 5.8 µM [inhibitor, full curve]. For FC(F)(F)c1cccc(NC(=S)NCCc2ccccn2)c1, the Potency was inconclusive: 16.4 µM [inhibitor, single point]. For COc1cccc(C(=O)NCC(c2ccc(N(C)C)cc2)N2CCc3ccccc32)c1OC (configuration not stated), the Potency was active: 14.6 µM. In the case of O=C(N/N=C/c1ccccc1C(=O)O)c1cccc(S(=O)(=O)N2CCCCC2)c1, the “activity change, negative = growth inhibition” value was inactive: 8.35%. For CN1c2ccc(Cl)cc2C(=O)NC1c1ccc([N+](=O)[O-])s1 (configuration not stated), the Potency was active: 23.1 µM. In the case of CC(C)(C)[C@@H]1COC(=O)[C@H](Cc2ccc(F)cc2)C/C=C\C[C@@H](CC(=O)N(CCO)Cc2ccccc2)C(=O)N1, the Potency was active: 20.6 µM. For O=C(O)CN(Cc1ccccc1)S(=O)(=O)c1ccc(F)cc1, the “activity change, negative = growth inhibition” value was inactive: -26.3%. In the case of COc1ccc(-c2nc(Cn3c(SCc4cccc(F)c4)nc4cccnc43)c(C)o2)cc1, the Potency was inconclusive: 23.1 µM [inhibitor, single point]. For O=c1cc(CN2CCOCC2)c2cc(Cl)ccc2o1, the “activity change, negative = growth inhibition” value was inactive: 13.3%. With Oc1ccccc1/C=N/Nc1ncc(Br)cn1 the Potency was active: 7.31 µM. With COc1cc(CN2CCC(Cc3ccccc3)CC2)cc([N+](=O)[O-])c1O the “activity change, negative = growth inhibition” value was inactive: 17%. With FC(F)(F)c1ccccc1-c1cncnc1NCc1cccnc1 the “activity change, negative = growth inhibition” value was inactive: -5.92%. In the case of COc1ccc(N2CCN(C(=O)CN3C(=O)COc4ccccc43)CC2)cc1, the “activity change, negative = growth inhibition” value was inactive: -18.9%. For CC(=O)O[C@H]1[C@H](C)OC=C[C@@H]1OC(C)=O, the Potency was active: 16.4 µM. With CCN(/C=N/c1sc2c(c1C#N)CCCCC2)CC the Potency was active: 20.6 µM. For O=C(OCc1nc2ccc(Cl)cc2n1CCO)c1ccc(O)cc1, the Potency was inconclusive: 23.1 µM [inhibitor, partial curve, poor fit]. For Cc1ccc(SCCC(=O)Nc2cccc(N(C)S(C)(=O)=O)c2)cc1, the Potency was inconclusive: 25.9 µM [inhibitor, single point]. In the case of c1ccc(-c2ccc(OCCCNC3CCCC3)cc2)cc1, the Potency was inconclusive: 20.6 µM [inhibitor, single point]. For CC(C)(C)c1cc[n+](CC(=O)Nc2cc(C(F)(F)F)ccc2N2CCOCC2)cc1, the Potency was inconclusive: 20.6 µM [inhibitor, single point]. For CCCCNC(=S)N(C)/N=C/c1c(F)c(F)c(F)c(F)c1F, the Potency was inconclusive: 29.1 µM [inhibitor, single point]. With O=C(CSc1nnc(-c2ccccc2NC(=O)c2ccccc2)o1)OC1CCCCC1 the Potency was inconclusive: 29.1 µM [inhibitor, single point]. In the case of O=C(c1cc(S(=O)(=O)N2CCOCC2)ccc1Cl)N1CCC(Cc2ccccc2)CC1, the Potency was inconclusive: 29.1 µM [inhibitor, single point]. With COc1cccc(CN(C)C(=O)c2ccc3nccnc3c2)c1 the Potency was inconclusive: 29.1 µM [inhibitor, single point]. In the case of CC(=O)Nc1nc2n(n1)C(c1ccc(Cl)cc1)C=C(C)N2 (configuration not stated), the “activity change, negative = growth inhibition” value was inactive: -9.57%. In the case of COc1ccc(OCC(=O)N/N=C(\C)c2ccc(-n3ccnc3)cc2)cc1, the Potency was inconclusive: 6.51 µM [inhibitor, full curve]. With CC(C)CC(C(=O)NC(C)(C)C)N(CC1CCCO1)C(=O)c1snc(C(N)=O)c1N (configuration not stated) the Potency was inconclusive: 20.6 µM [inhibitor, single point]. With COc1ccc(N2CCN(c3oc(-c4ccccc4C)nc3S(=O)(=O)c3ccccc3)CC2)cc1 the Potency was active: 9.2 µM. With CC(=O)Nc1cccc(C(=O)OCC(=O)Nc2nnc(-c3ccccc3)o2)c1 the “activity change, negative = growth inhibition” value was inactive: 1.04%. With Cc1cccc(OCC(=O)Nc2c(C(=O)N3CCN(c4ccccc4)CC3)oc3ccccc23)c1 the Potency was active: 23.1 µM. In the case of Cc1ccc(NCC2(N=Cc3ccccc3)OC(CO)C(O)C2O)cc1 (configuration not stated), the Potency was inconclusive: 29.1 µM [inhibitor, single point]. In the case of O=C(c1cc(S(=O)(=O)N2CCOCC2)ccc1F)N1CCc2ccccc21, the Potency was inconclusive: 20.6 µM [inhibitor, single point]. In the case of CCc1nc2ccccc2n1CCCCOc1ccc(Cl)cc1, the Potency was inconclusive: 18.4 µM [inhibitor, single point]. With CCO[C@@H]1OC(C(=O)NCc2nc3ccccc3[nH]2)=C[C@H](c2ccccc2)[C@H]1CCCO the Potency was inconclusive: 29.1 µM [inhibitor, single point]. In the case of Cc1cn([C@H]2C[C@H](O)[C@@H](CNCc3ccccc3OCCCN3CCOCC3)O2)c(=O)[nH]c1=O, the “activity change, negative = growth inhibition” value was inactive: 7.88%. With COc1cc(NC(=O)Cn2nc(Cc3cccnc3)c3ccccc3c2=O)cc(OC)c1OC the Potency was “inactive”.
